Test results published in patent US20260217856A1 (MIE UNIVERSITY, published 2026).

T1: CD19 (human, UniProt P15391 20-556)
T1 sequence (looked up): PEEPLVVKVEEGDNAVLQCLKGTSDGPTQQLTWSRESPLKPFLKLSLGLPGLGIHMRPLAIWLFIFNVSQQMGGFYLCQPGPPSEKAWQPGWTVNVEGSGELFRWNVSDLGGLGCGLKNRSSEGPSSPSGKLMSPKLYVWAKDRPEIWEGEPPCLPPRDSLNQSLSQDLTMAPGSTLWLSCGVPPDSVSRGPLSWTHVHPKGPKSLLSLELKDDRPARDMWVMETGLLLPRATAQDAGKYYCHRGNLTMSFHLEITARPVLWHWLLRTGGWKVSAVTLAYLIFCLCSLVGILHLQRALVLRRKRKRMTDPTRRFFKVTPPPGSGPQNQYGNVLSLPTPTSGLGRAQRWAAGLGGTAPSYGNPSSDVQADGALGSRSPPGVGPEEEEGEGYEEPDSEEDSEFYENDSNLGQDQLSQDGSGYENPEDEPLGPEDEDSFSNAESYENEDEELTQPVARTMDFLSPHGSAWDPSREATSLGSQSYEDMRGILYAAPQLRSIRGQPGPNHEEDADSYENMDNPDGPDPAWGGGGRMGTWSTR

B1: CD19-28z-m1 (other)
chain: DIQMTQTTSSLSASLGDRVTISCRASQDISKYLNWYQQKPDGTVKLLIYHTSRLHSGVPSRFRGRGRGTRYSLTISNLEQEDIATYFCQQGNTLPYTFGGGTKLEITGGGGSGGGGSGGGGSEVKLQESGPGLVAPSQSLSVTCTVSGVSLPDYGVSWIRQPPRKGLEWLGVIWGSETTYYNSALKSRLTIIKDNSKSQVFLKMNSLQTDDTAIYYCAKHYYYGGSYAMDYWGQGTSVTVSSIEVMYPPPYLDNEKSNGTIIHVKGKHLCPSPLFPGPSKPFWVLVVVGGVLACYSLLVTVAFIIFWVRSKRSRLLHSDYMNMTPRRPGPTRKHYQPYAPPRDFAAYRSL[about 120 residues left out here]
B2: CD19-28z-m4 (other)
chain: DIQMTQTTSSLSASLGDRVTISCRASQDISKYLNWYQQKPDGTVKLLIYHTSRLHSGVPSRFSGRGRGTRYRLTISNLEQEDIATYFCQQGNTLPYTFGGGTKLEITGGGGSGGGGSGGGGSEVKLQESGPGLVAPSQSLSVTCTVSGVSLPDYGVSWIRQPPRKGLEWLGVIWGSETTYYNSALKSRLTIIKDNSKSQVFLKMNSLQTDDTAIYYCAKHYYYGGSYAMDYWGQGTSVTVSSIEVMYPPPYLDNEKSNGTIIHVKGKHLCPSPLFPGPSKPFWVLVVVGGVLACYSLLVTVAFIIFWVRSKRSRLLHSDYMNMTPRRPGPTRKHYQPYAPPRDFAAYRSL[about 120 residues left out here]
B3: CD19-28z-m3 (other)
chain: DIQMTQTTSSLSASLGDRVTISCRASQDISKYLNWYQQKPDGTVKLLIYHTSRLHSGVPSRFRGRGSGTRYRLTISNLEQEDIATYFCQQGNTLPYTFGGGTKLEITGGGGSGGGGSGGGGSEVKLQESGPGLVAPSQSLSVTCTVSGVSLPDYGVSWIRQPPRKGLEWLGVIWGSETTYYNSALKSRLTIIKDNSKSQVFLKMNSLQTDDTAIYYCAKHYYYGGSYAMDYWGQGTSVTVSSIEVMYPPPYLDNEKSNGTIIHVKGKHLCPSPLFPGPSKPFWVLVVVGGVLACYSLLVTVAFIIFWVRSKRSRLLHSDYMNMTPRRPGPTRKHYQPYAPPRDFAAYRSL[about 120 residues left out here]
B4: CD19-28z-m7 (other)
chain: DIQMTQTTSSLSASLGDRVTISCRASQDISKYLNWYQQKPDGTVKLLIYHTSRLHSGVPSRFRGRGSGTDYRLTISNLEQEDIATYFCQQGNTLPYTFGGGTKLEITGGGGSGGGGSGGGGSEVKLQESGPGLVAPSQSLSVTCTVSGVSLPDYGVSWIRQPPRKGLEWLGVIWGSETTYYNSALKSRLTIIKDNSKSQVFLKMNSLQTDDTAIYYCAKHYYYGGSYAMDYWGQGTSVTVSSIEVMYPPPYLDNEKSNGTIIHVKGKHLCPSPLFPGPSKPFWVLVVVGGVLACYSLLVTVAFIIFWVRSKRSRLLHSDYMNMTPRRPGPTRKHYQPYAPPRDFAAYRSL[about 120 residues left out here]
B5: CD19-28z-Km14 (other)
chain: DIQMTQTTSSLSASLGDRVTISCRASQDISKYLNWYQQKPDGTVKLLIYHTSRLHSGVPSRFSGKGKGTKYKLTISNLEQEDIATYFCQQGNTLPYTFGGGTKLEITGGGGSGGGGSGGGGSEVKLQESGPGLVAPSQSLSVTCTVSGVSLPDYGVSWIRQPPRKGLEWLGVIWGSETTYYNSALKSRLTIIKDNSKSQVFLKMNSLQTDDTAIYYCAKHYYYGGSYAMDYWGQGTSVTVSSIEVMYPPPYLDNEKSNGTIIHVKGKHLCPSPLFPGPSKPFWVLVVVGGVLACYSLLVTVAFIIFWVRSKRSRLLHSDYMNMTPRRPGPTRKHYQPYAPPRDFAAYRSL[about 120 residues left out here]
B6: CD19-28z-m12 (other)
chain: DIQMTQTTSSLSASLGDRVTISCRASQDISKYLNWYQQKPDGTVKLLIYHTSRLHSGVPSRFSGRGRGTDYRLTISNLEQEDIATYFCQQGNTLPYTFGGGTKLEITGGGGSGGGGSGGGGSEVKLQESGPGLVAPSQSLSVTCTVSGVSLPDYGVSWIRQPPRKGLEWLGVIWGSETTYYNSALKSRLTIIKDNSKSQVFLKMNSLQTDDTAIYYCAKHYYYGGSYAMDYWGQGTSVTVSSIEVMYPPPYLDNEKSNGTIIHVKGKHLCPSPLFPGPSKPFWVLVVVGGVLACYSLLVTVAFIIFWVRSKRSRLLHSDYMNMTPRRPGPTRKHYQPYAPPRDFAAYRSL[about 120 residues left out here]
B7: CD19-28z-Km6 (other)
chain: DIQMTQTTSSLSASLGDRVTISCRASQDISKYLNWYQQKPDGTVKLLIYHTSRLHSGVPSRFKGKGSGTKYSLTISNLEQEDIATYFCQQGNTLPYTFGGGTKLEITGGGGSGGGGSGGGGSEVKLQESGPGLVAPSQSLSVTCTVSGVSLPDYGVSWIRQPPRKGLEWLGVIWGSETTYYNSALKSRLTIIKDNSKSQVFLKMNSLQTDDTAIYYCAKHYYYGGSYAMDYWGQGTSVTVSSIEVMYPPPYLDNEKSNGTIIHVKGKHLCPSPLFPGPSKPFWVLVVVGGVLACYSLLVTVAFIIFWVRSKRSRLLHSDYMNMTPRRPGPTRKHYQPYAPPRDFAAYRSL[about 120 residues left out here]
B8: CD19-28z-Km13 (other)
chain: DIQMTQTTSSLSASLGDRVTISCRASQDISKYLNWYQQKPDGTVKLLIYHTSRLHSGVPSRFKGKGSGTKYKLTISNLEQEDIATYFCQQGNTLPYTFGGGTKLEITGGGGSGGGGSGGGGSEVKLQESGPGLVAPSQSLSVTCTVSGVSLPDYGVSWIRQPPRKGLEWLGVIWGSETTYYNSALKSRLTIIKDNSKSQVFLKMNSLQTDDTAIYYCAKHYYYGGSYAMDYWGQGTSVTVSSIEVMYPPPYLDNEKSNGTIIHVKGKHLCPSPLFPGPSKPFWVLVVVGGVLACYSLLVTVAFIIFWVRSKRSRLLHSDYMNMTPRRPGPTRKHYQPYAPPRDFAAYRSL[about 120 residues left out here]
B9: CD19-28z-m16 (other)
chain: DIQMTQTTSSLSASLGDRVTISCRASQDISKYLNWYQQKPDGTVKLLIYHTSRLHSGVPSRFRGRGRGTRYRLTISNLEQEDIATYFCQQGNTLPYTFGGGTKLEITGGGGSGGGGSGGGGSEVKLQESGPGLVAPSQSLSVTCTVSGVSLPDYGVSWIRQPPRKGLEWLGVIWGSETTYYNSALKSRLTIIKDNSKSQVFLKMNSLQTDDTAIYYCAKHYYYGGSYAMDYWGQGTSVTVSSIEVMYPPPYLDNEKSNGTIIHVKGKHLCPSPLFPGPSKPFWVLVVVGGVLACYSLLVTVAFIIFWVRSKRSRLLHSDYMNMTPRRPGPTRKHYQPYAPPRDFAAYRSL[about 120 residues left out here]
B10: CD19-28z-Km15 (other)
chain: DIQMTQTTSSLSASLGDRVTISCRASQDISKYLNWYQQKPDGTVKLLIYHTSRLHSGVPSRFKGKGKGTKYKLTISNLEQEDIATYFCQQGNTLPYTFGGGTKLEITGGGGSGGGGSGGGGSEVKLQESGPGLVAPSQSLSVTCTVSGVSLPDYGVSWIRQPPRKGLEWLGVIWGSETTYYNSALKSRLTIIKDNSKSQVFLKMNSLQTDDTAIYYCAKHYYYGGSYAMDYWGQGTSVTVSSIEVMYPPPYLDNEKSNGTIIHVKGKHLCPSPLFPGPSKPFWVLVVVGGVLACYSLLVTVAFIIFWVRSKRSRLLHSDYMNMTPRRPGPTRKHYQPYAPPRDFAAYRSL[about 120 residues left out here]
B11: CD19-28z-m10 (other)
chain: DIQMTQTTSSLSASLGDRVTISCRASQDISKYLNWYQQKPDGTVKLLIYHTSRLHSGVPSRFRGSGSGTRYRLTISNLEQEDIATYFCQQGNTLPYTFGGGTKLEITGGGGSGGGGSGGGGSEVKLQESGPGLVAPSQSLSVTCTVSGVSLPDYGVSWIRQPPRKGLEWLGVIWGSETTYYNSALKSRLTIIKDNSKSQVFLKMNSLQTDDTAIYYCAKHYYYGGSYAMDYWGQGTSVTVSSIEVMYPPPYLDNEKSNGTIIHVKGKHLCPSPLFPGPSKPFWVLVVVGGVLACYSLLVTVAFIIFWVRSKRSRLLHSDYMNMTPRRPGPTRKHYQPYAPPRDFAAYRSL[about 120 residues left out here]
B12: CD19-28z-m5 (other)
chain: DIQMTQTTSSLSASLGDRVTISCRASQDISKYLNWYQQKPDGTVKLLIYHTSRLHSGVPRRFRGRGSGTDYSLTISNLEQEDIATYFCQQGNTLPYTFGGGTKLEITGGGGSGGGGSGGGGSEVKLQESGPGLVAPSQSLSVTCTVSGVSLPDYGVSWIRQPPRKGLEWLGVIWGSETTYYNSALKSRLTIIKDNSKSQVFLKMNSLQTDDTAIYYCAKHYYYGGSYAMDYWGQGTSVTVSSIEVMYPPPYLDNEKSNGTIIHVKGKHLCPSPLFPGPSKPFWVLVVVGGVLACYSLLVTVAFIIFWVRSKRSRLLHSDYMNMTPRRPGPTRKHYQPYAPPRDFAAYRSL[about 120 residues left out here]

Biological target: T1, CD19
Assay: cell-based or functional assay

Row | IFNγ production, co-culture with Nalm-6 | Binder | cytotoxic activity, effector:target 1:1, Nalm-6 target cells | cytotoxic activity, effector:target 3:1, Nalm-6 target cells
1 | 0.31 ratio to WT CAR-T (1.00) | B1 | 1.56 ratio to WT CAR-T (1.00) | 1 ratio to WT CAR-T (1.00)
2 | 0.29 ratio to WT CAR-T (1.00) | B2 | 1.49 ratio to WT CAR-T (1.00) | 1.17 ratio to WT CAR-T (1.00)
3 | 0.27 ratio to WT CAR-T (1.00) | B3 | 1.37 ratio to WT CAR-T (1.00) | 1.09 ratio to WT CAR-T (1.00)

Biological target: T1, CD19
Assay: cell-based or functional assay
Remark: another data set of the same source

Row | IFNγ production, co-culture with Nalm-6 | Binder | cytotoxic activity, effector:target 1:1, Nalm-6 target cells | cytotoxic activity, effector:target 2:1, Nalm-6 target cells
4 | 0.13 ratio to WT CAR-T (1.00) | B4 | 1.11 ratio to WT CAR-T (1.00) | –
5 | 0.13 ratio to WT CAR-T (1.00) | B5 | 1.34 ratio to WT CAR-T (1.00) | 1.72 ratio to WT CAR-T (1.00)
6 | 0.16 ratio to WT CAR-T (1.00) | B6 | 1.39 ratio to WT CAR-T (1.00) | 1.47 ratio to WT CAR-T (1.00)
7 | 0.2 ratio to WT CAR-T (1.00) | B7 | 1.13 ratio to WT CAR-T (1.00) | 1.5 ratio to WT CAR-T (1.00)
8 | 0.13 ratio to WT CAR-T (1.00) | B8 | 1.37 ratio to WT CAR-T (1.00) | 1.68 ratio to WT CAR-T (1.00)
9 | 0.15 ratio to WT CAR-T (1.00) | B9 | 1.32 ratio to WT CAR-T (1.00) | 1.93 ratio to WT CAR-T (1.00)
10 | 0.14 ratio to WT CAR-T (1.00) | B10 | 1.23 ratio to WT CAR-T (1.00) | 1.29 ratio to WT CAR-T (1.00)
11 | 0.21 ratio to WT CAR-T (1.00) | B11 | 0.98 ratio to WT CAR-T (1.00) | 1.59 ratio to WT CAR-T (1.00)
12 | 0.34 ratio to WT CAR-T (1.00) | B12 | 0.95 ratio to WT CAR-T (1.00) | 1.09 ratio to WT CAR-T (1.00)

Biological target: T1, CD19
Assay: cell-based or functional assay
Remark: another data set of the same source

Row | IFNγ production, co-culture with Nalm-6 | Binder | cytotoxic activity, effector:target 1:1, Nalm-6 target cells | cytotoxic activity, effector:target 3:1, Nalm-6 target cells
13 | 0.25 ratio to WT CAR-T (1.00) | B1 | 1.3 ratio to WT CAR-T (1.00) | 1.03 ratio to WT CAR-T (1.00)
14 | 0.26 ratio to WT CAR-T (1.00) | B3 | 1.26 ratio to WT CAR-T (1.00) | 0.91 ratio to WT CAR-T (1.00)
